In the supplement of paper PMC3334620:
In all, about 33,000 sequences were measured (“E-score (-0.5 to 0.5)”: median about -0.04, highest 2% from about 0.36 on). Some of the results follow.

These sequences were tested against T1, Hmlalpha2 (UniProt P0CY09) (assay: PBM E-score (8-mer binding enrichment) (E-score (-0.5 to 0.5)); higher = stronger / more preferred TF binding; most listed sequences are background and not binding sites). Details: protein concentration: 200 nM; construct: GST-full length.
T1 sequence: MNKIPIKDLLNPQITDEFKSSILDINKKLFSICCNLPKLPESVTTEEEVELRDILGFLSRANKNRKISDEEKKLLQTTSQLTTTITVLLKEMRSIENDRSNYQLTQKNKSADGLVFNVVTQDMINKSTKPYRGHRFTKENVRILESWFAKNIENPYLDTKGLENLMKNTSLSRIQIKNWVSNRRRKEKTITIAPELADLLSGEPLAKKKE
Summary of the method: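 Detection of bound protein used fluorescent anti-GST, with scans normalised by masliner. The proteins were GST-tagged yeast transcription factors applied at about 100-200 nM to universal all-10-mer Agilent arrays made double-stranded by primer extension. Each ungapped eight-base word, pooled with its reverse complement, was scored with an E-score from the Universal PBM Analysis Suite.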

| Sequence | PBM E-score |
| --- | --- |
| ATGGGCGG | -0.155 |
| ATTAGTAC | 0.162 |
| AAGTATGG | -0.0254 |
| CATTAGCA | 0.176 |
| TGACCTAA | 0.0337 |
| CTTTCCGC | -0.0913 |
| AGGTGACT | 0.0246 |
| CCACATTC | -0.185 |
| GCAGATCC | 0.0163 |
| AGGGGGCC | -0.278 |
| GTCCATCA | -0.203 |
| AGGTCCCG | -0.144 |
| GTAAGGCA | 0.0168 |
| CACGGCTG | -0.00299 |
| CCCCCGGC | -0.235 |
| ATATGGAG | -0.0168 |
| GATCCCGA | -0.245 |
| CTGGGAGA | -0.262 |
| CAGCCCCC | -0.342 |
| AGCTGGGG | -0.288 |
| GTACCGAA | 0.0584 |
| GGGATCGA | -0.186 |
| CGCACCAA | -0.0797 |
| ACGAATTC | 0.011 |

| Sequence | PBM E-score |
| --- | --- |
| ACCGTACC | -0.255 |
| AAAAACAA | 0.228 |
| CGTCCTCA | -0.172 |
| GGCTGAGA | -0.248 |
| ATGCAGAG | -0.0802 |
| ATGGCGAA | -0.0009 |
| GACAACTC | 0.0205 |
| ACCCCCTC | -0.173 |
| CCATGGTC | -0.232 |
| CCAGTTCA | -0.0858 |
| GAGGATAC | 0.0495 |
| CCTCAGTA | -0.236 |
| AATCATTA | 0.107 |
| CAGGTGGC | -0.237 |
| ATAGTTGC | 0.175 |
| ACCAGCCG | -0.251 |
| ACTTGAAT | 0.0654 |
| CGACCTCC | -0.161 |
| TACAGAAA | 0.163 |
| CGTAGTCA | 0.0306 |
| ATAAGGCG | -0.00126 |
| GGAGGAAC | -0.0482 |
| CGGTCAAA | 0.031 |
| AGCTCAAA | 0.106 |

| Sequence | PBM E-score |
| --- | --- |
| CGACGTGA | 0.121 |
| AGGCTTGA | -0.123 |
| ATCTCAAG | -0.0581 |
| CAAGACTC | -0.133 |
| CATCGCGA | 0.151 |
| CGGCACCC | -0.246 |
| CCGGTCAA | 0.0221 |
| AAAGGGGT | -0.097 |
| CCTACTTC | 0.0165 |
| AACAACGG | 0.138 |
| ATATACAC | 0.422 |
| CCGCTCAA | -0.209 |
| AGACACTG | -0.0871 |
| ATCAGCGC | -0.123 |
| GCCTCCGA | -0.178 |
| CTGCATCA | 0.0148 |
| AGGGGAAG | -0.151 |
| CCTGTGTC | 0.0583 |
| CGTAGTAC | 0.144 |
| CTAAATAG | -0.0422 |
| GATCGGGA | -0.302 |
| AGTCAATG | -0.105 |
| AGTTGGGC | -0.232 |
| GGTTTTTA | 0.27 |

| Sequence | PBM E-score |
| --- | --- |
| GACCGAAA | -0.0454 |
| ACCGTAAG | -0.0808 |
| CCGCGGGA | -0.247 |
| CAAAAGTA | 0.141 |
| AAGTCTCG | -0.145 |
| ATGGGCTA | 0.0703 |
| CCGGAGGA | -0.327 |
| ACTAACTA | -0.13 |
| TCTTTTAA | 0.183 |
| CTCTCCAA | -0.0551 |
| ATGGCACA | -0.0246 |
| CCGTTGAG | -0.146 |
| TCATGCCA | 0.0681 |
| CTATGGCA | -0.21 |
| AGGCGGTG | -0.059 |
| CAGCCCTC | -0.176 |
| CCTCTGCA | -0.104 |
| ACTAGCCG | -0.139 |
| ACACGGCC | 0.312 |
| CCAACCAA | -0.201 |
| CGCTGAGC | -0.0449 |
| CCTACGAC | -0.178 |
